Some of the results follow. Repeats are few or missing, and single values can be far off.
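Also: cell number obtained by counting DAPI-stained nuclei in high-throughput microscope images with image analysis software, screen run in 1,536-well plates.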

In one assay the test system is MeWo. As to the kind of experiment: cell count relative to DMSO control; melanoma cells; higher = more viable cells. Particulars: library dose: low library concentration; 72 h.
Molecule `Nc1nc(F)nc2c1ncn2[C@@H]1O[C@H](CO)[C@@H](O)[C@@H]1O` [fludarabine] + O=C(Nc1cccc(Cl)c1)Nc1ncc(CCNc2ncnc3ccsc23)s1 [SNS314] (first compound 0.2 µM, partner dose 0.0008 µM) came in with a cell count of 30.4%.
Consider `CC(=O)O[C@@]12CO[C@@H]1C[C@H](O)[C@@]1(C)C(=O)[C@H](O)C3=C(C)[C@@H](OC(=O)[C@H](O)[C@@H](NC(=O)OC(C)(C)C)c4ccccc4)C[C@@](O)([C@@H](OC(=O)c4ccccc4)[C@H]21)C3(C)C` [Docetaxel] + CC(C)CCN1c2nc(Nc3cc(F)c(O)c(F)c3)ncc2N(C)C(=O)C1C [BID1870] (first compound 0.0001 µM, partner dose 0.2 µM), for which the cell count is 39.6%.
`Nc1ncn([C@H]2C[C@H](O)[C@@H](CO)O2)c(=O)n1` [decitabine] + COc1ccc(-c2ccc3c(N4CCOCC4)nc(N4C[C@@H](C)O[C@@H](C)C4)nc3n2)cc1CO [KU0063794] (first compound 0.1 µM, partner dose 0.02 µM) showed a cell count of 103%.
`Nc1ccn([C@@H]2O[C@H](CO)[C@@H](O)C2(F)F)c(=O)n1` [gemcitabine] + CC1(C)NC(=O)N(c2ccc([N+](=O)[O-])c(C(F)(F)F)c2)C1=O [nilutamide] (first compound 0.0004 µM, partner dose 1 µM): the cell count was determined as 106%.
The same measure, in the same setting: the figure for `CC(=O)c1c(C)c2cnc(Nc3ccc(N4CCNCC4)cn3)nc2n(C2CCCC2)c1=O` [palbociclib] + CC(C)(C)c1cnc(CSc2cnc(NC(=O)C3CCNCC3)s2)o1 [SNS-032] (first compound 0.04 µM, partner dose 0.01 µM) is 86.8%; for `Nc1ccn([C@@H]2O[C@H](CO)[C@@H](O)C2(F)F)c(=O)n1` [gemcitabine] + Cc1ccc(NC(=O)c2cccc(N(C)C)c2)cc1NC(=O)c1ccc(O)cc1 [ZM336372] (first compound 0.0004 µM, partner dose 2 µM) it is 94.8%.

In a further assay the test system is RPMI7951. The description is as above. As to conditions: library dose: low library concentration; 72 h.
`CC(=O)O[C@@]12CO[C@@H]1C[C@H](O)[C@@]1(C)C(=O)[C@H](O)C3=C(C)[C@@H](OC(=O)[C@H](O)[C@@H](NC(=O)OC(C)(C)C)c4ccccc4)C[C@@](O)([C@@H](OC(=O)c4ccccc4)[C@H]21)C3(C)C` [Docetaxel] + CN(NC(=O)CC(=O)NN(C)C(=S)c1ccccc1)C(=S)c1ccccc1 [STA4783] (first compound 0.0001 µM, partner dose 0.006 µM): the cell count was 38.9%.
As for `CC(=O)O[C@@]12CO[C@@H]1C[C@H](O)[C@@]1(C)C(=O)[C@H](O)C3=C(C)[C@@H](OC(=O)[C@H](O)[C@@H](NC(=O)OC(C)(C)C)c4ccccc4)C[C@@](O)([C@@H](OC(=O)c4ccccc4)[C@H]21)C3(C)C` [Docetaxel] + Cc1ccc(NC(=O)c2cccc(N(C)C)c2)cc1NC(=O)c1ccc(O)cc1 [ZM336372] (first compound 0.0001 µM, partner dose 2 µM), the cell count is 41.8%.
`Nc1ncn([C@H]2C[C@H](O)[C@@H](CO)O2)c(=O)n1` [decitabine] + CO[C@@H]1[C@H](N(C)C(=O)c2ccccc2)C[C@H]2O[C@]1(C)n1c3ccccc3c3c4c(c5c6ccccc6n2c5c31)C(=O)NC4 [Midostaurin] (first compound 0.1 µM, partner dose 0.08 µM) registered a cell count of 55.6%.
The molecule `Nc1ccn([C@@H]2O[C@H](CO)[C@@H](O)C2(F)F)c(=O)n1` [gemcitabine] + CCc1ccc(CCOc2ccc(CC3SC(=O)NC3=O)cc2)nc1 [pioglitazone] (first compound 0.0004 µM, partner dose 2 µM) came in with a cell count of 103%.
Still for that read-out and setting: then `CC(=O)c1c(C)c2cnc(Nc3ccc(N4CCNCC4)cn3)nc2n(C2CCCC2)c1=O` [palbociclib] + C=CCn1c(=O)c2cnc(Nc3ccc(N4CCN(C)CC4)cc3)nc2n1-c1cccc(C(C)(C)O)n1 [MK1775] (first compound 0.04 µM, partner dose 0.02 µM), with 68.2%; and `CC(=O)c1c(C)c2cnc(Nc3ccc(N4CCNCC4)cn3)nc2n(C2CCCC2)c1=O` [palbociclib] + Oc1cc(-c2nc(-c3ccccc3)[nH]c2-c2ccncc2)ccc1Cl [L779450] (first compound 0.04 µM, partner dose 0.2 µM), with 66.2%.
Same read-out and setting: the figure for `Nc1ncn([C@H]2C[C@H](O)[C@@H](CO)O2)c(=O)n1` [decitabine] + c1cc(-c2cnn3cc(-c4ccc(OCCN5CCCCC5)cc4)cnc23)ccn1 [Dorsomorphin] (first compound 0.1 µM, partner dose 0.4 µM) is 80.5%; for `Nc1ncn([C@H]2C[C@H](O)[C@@H](CO)O2)c(=O)n1` [decitabine] + O=C(Nc1ccccc1)c1cc([N+](=O)[O-])ccc1Cl [GW9662] (first compound 0.1 µM, partner dose 2 µM) it is 67.6%; for `Nc1ncn([C@H]2C[C@H](O)[C@@H](CO)O2)c(=O)n1` [decitabine] + O=C(Nc1cccc(Cl)c1)Nc1ncc(CCNc2ncnc3ccsc23)s1 [SNS314] (first compound 0.1 µM, partner dose 0.0008 µM) it is 75.2%.
As for `CC(=O)O[C@@]12CO[C@@H]1C[C@H](O)[C@@]1(C)C(=O)[C@H](O)C3=C(C)[C@@H](OC(=O)[C@H](O)[C@@H](NC(=O)OC(C)(C)C)c4ccccc4)C[C@@](O)([C@@H](OC(=O)c4ccccc4)[C@H]21)C3(C)C` [Docetaxel] + Cn1cncc1[C@@](N)(c1ccc(Cl)cc1)c1ccc2c(c1)c(-c1cccc(Cl)c1)cc(=O)n2C [tipifarnib] (first compound 0.0001 µM, partner dose 0.01 µM), the cell count was 44.1%.
Same read-out and setting: the figure for `Nc1nc(F)nc2c1ncn2[C@@H]1O[C@H](CO)[C@@H](O)[C@@H]1O` [fludarabine] + CC1(C)NC(=O)N(c2ccc([N+](=O)[O-])c(C(F)(F)F)c2)C1=O [nilutamide] (first compound 0.2 µM, partner dose 1 µM) is 91.6%; for `Nc1ncn([C@H]2C[C@H](O)[C@@H](CO)O2)c(=O)n1` [decitabine] + O=C(CCCCCCC(=O)Nc1ccccc1)NO [vorinostat] (first compound 0.1 µM, partner dose 0.08 µM) it is 87.8%.
Same read-out and setting: the figure for `CC(=O)c1c(C)c2cnc(Nc3ccc(N4CCNCC4)cn3)nc2n(C2CCCC2)c1=O` [palbociclib] + COc1ccc(-c2ccc3c(N4CCOCC4)nc(N4C[C@@H](C)O[C@@H](C)C4)nc3n2)cc1CO [KU0063794] (first compound 0.04 µM, partner dose 0.02 µM) is 91.6%.
With `Nc1nc(F)nc2c1ncn2[C@@H]1O[C@H](CO)[C@@H](O)[C@@H]1O` [fludarabine] + O=C(O)C(=O)Nc1sc2c(c1C(=O)O)CCNC2 [TCS401] (first compound 0.2 µM, partner dose 1.66667 µM), the cell count is 104%.
On the same count and under the same terms, then `Nc1ncn([C@H]2C[C@H](O)[C@@H](CO)O2)c(=O)n1` [decitabine] + COc1cc(Nc2ncc(F)c(Nc3ccc4c(n3)NC(=O)C(C)(C)O4)n2)cc(OC)c1OC [Tamatinib] (first compound 0.1 µM, partner dose 0.4 µM), with 70.1%.
`Nc1nc(F)nc2c1ncn2[C@@H]1O[C@H](CO)[C@@H](O)[C@@H]1O` [fludarabine] + CCc1ccc(CCOc2ccc(CC3SC(=O)NC3=O)cc2)nc1 [pioglitazone] (first compound 0.2 µM, partner dose 2 µM) showed a cell count of 96.7%.
Same read-out and setting: then `Nc1ccn([C@@H]2O[C@H](CO)[C@@H](O)C2(F)F)c(=O)n1` [gemcitabine] + O=C(Nc1cccc(Cl)c1)Nc1ncc(CCNc2ncnc3ccsc23)s1 [SNS314] (first compound 0.0004 µM, partner dose 0.0008 µM), with 98.6%; and `Nc1ccn([C@@H]2O[C@H](CO)[C@@H](O)C2(F)F)c(=O)n1` [gemcitabine] + CN(C)S(=O)(=O)c1ccc2c(c1)/C(=C/c1cc3c([nH]1)CCCC3)C(=O)N2 [SU6656] (first compound 0.0004 µM, partner dose 0.4 µM), with 103%.
In turn, `Nc1ncn([C@H]2C[C@H](O)[C@@H](CO)O2)c(=O)n1` [decitabine] + COc1cc(N2CCC(N3CCN(C)CC3)CC2)ccc1Nc1ncc(Cl)c(Nc2ccccc2S(=O)(=O)C(C)C)n1 [NVP-TAE684] (first compound 0.1 µM, partner dose 0.08 µM) came in with a cell count of 94.1%.
`CC(=O)O[C@@]12CO[C@@H]1C[C@H](O)[C@@]1(C)C(=O)[C@H](O)C3=C(C)[C@@H](OC(=O)[C@H](O)[C@@H](NC(=O)OC(C)(C)C)c4ccccc4)C[C@@](O)([C@@H](OC(=O)c4ccccc4)[C@H]21)C3(C)C` [Docetaxel] + CCCCCCCCCCCC1=C(O)C(=O)C=C(O)C1=O [Embelin] (first compound 0.0001 µM, partner dose 1.2 µM) showed a cell count of 35.6%.
On to `CC(=O)c1c(C)c2cnc(Nc3ccc(N4CCNCC4)cn3)nc2n(C2CCCC2)c1=O` [palbociclib] + O=C(Nc1cccc(Cl)c1)Nc1ncc(CCNc2ncnc3ccsc23)s1 [SNS314] (first compound 0.04 µM, partner dose 0.0008 µM), for which the cell count amounted to 79.5%.
Same read-out and setting: the figure for `CC(=O)O[C@@]12CO[C@@H]1C[C@H](O)[C@@]1(C)C(=O)[C@H](O)C3=C(C)[C@@H](OC(=O)[C@H](O)[C@@H](NC(=O)OC(C)(C)C)c4ccccc4)C[C@@](O)([C@@H](OC(=O)c4ccccc4)[C@H]21)C3(C)C` [Docetaxel] + N#Cc1c(O)c2c(-c3ccc(-c4ccccc4O)cc3)csc2[nH]c1=O [A769662] (first compound 0.0001 µM, partner dose 2 µM) is 48.2%.

For the origin of these results see the supplement of paper PMC4604168 (melanoma cell lines).
